# Where “and” joins values, the source holds several entries; their conditions need not be identical. Identical values can stand only once. In all, about 350,000 compounds went through this assay and about 31,000 (8.9%) were called active. The inconclusive results got no clear call from the source; some entries with a clear call stand among them for comparison. The call rests on the fitted dose curve; in most records, active means well fitted inhibition curve with a large enough effect; inconclusive means small, poorly fitted or top-dose-only effect; inactive means no such curve, though single readings can be large or run the other way. A potency beside an inconclusive call is a rough fit, not a confirmed value. A structure can be active in one record and inactive in another.
# Biological target: Histone-lysine N-methyltransferase EHMT2 (Homo sapiens) (UniProt Q96KQ7)
# UniProt Q96KQ7, sequence (Q96KQ7 whole entry, looked up): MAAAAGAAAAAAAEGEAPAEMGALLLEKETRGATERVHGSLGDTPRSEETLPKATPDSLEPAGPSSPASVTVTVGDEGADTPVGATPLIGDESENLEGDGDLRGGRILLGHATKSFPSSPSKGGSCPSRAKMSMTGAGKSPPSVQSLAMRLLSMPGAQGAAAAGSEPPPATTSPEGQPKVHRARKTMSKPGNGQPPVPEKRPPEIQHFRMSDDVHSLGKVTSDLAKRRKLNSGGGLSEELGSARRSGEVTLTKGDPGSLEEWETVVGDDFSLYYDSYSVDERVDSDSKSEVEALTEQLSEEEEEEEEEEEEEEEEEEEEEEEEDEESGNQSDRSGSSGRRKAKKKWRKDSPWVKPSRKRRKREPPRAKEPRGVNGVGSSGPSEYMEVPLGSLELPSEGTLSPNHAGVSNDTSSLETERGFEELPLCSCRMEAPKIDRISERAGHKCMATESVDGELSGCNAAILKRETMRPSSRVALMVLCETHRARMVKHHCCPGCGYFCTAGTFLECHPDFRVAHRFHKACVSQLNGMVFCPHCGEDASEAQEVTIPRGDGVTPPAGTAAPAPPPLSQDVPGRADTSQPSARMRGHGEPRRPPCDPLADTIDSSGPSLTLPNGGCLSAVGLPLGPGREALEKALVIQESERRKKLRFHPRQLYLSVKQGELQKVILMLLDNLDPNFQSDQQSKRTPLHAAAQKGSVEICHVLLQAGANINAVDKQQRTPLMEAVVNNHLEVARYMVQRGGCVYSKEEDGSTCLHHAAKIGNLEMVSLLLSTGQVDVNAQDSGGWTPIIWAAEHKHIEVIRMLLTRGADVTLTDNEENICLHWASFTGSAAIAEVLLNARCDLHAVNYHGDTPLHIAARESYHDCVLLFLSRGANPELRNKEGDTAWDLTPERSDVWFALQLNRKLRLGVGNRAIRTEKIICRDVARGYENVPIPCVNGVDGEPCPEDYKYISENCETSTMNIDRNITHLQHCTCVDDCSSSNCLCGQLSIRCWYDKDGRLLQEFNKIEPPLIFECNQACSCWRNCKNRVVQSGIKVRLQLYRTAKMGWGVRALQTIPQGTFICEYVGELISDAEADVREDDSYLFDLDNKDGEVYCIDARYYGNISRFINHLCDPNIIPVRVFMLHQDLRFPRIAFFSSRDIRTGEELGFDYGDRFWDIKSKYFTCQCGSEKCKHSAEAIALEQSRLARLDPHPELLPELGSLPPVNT
# Assay: qHTS Assay for Inhibitors of Histone Lysine Methyltransferase G9a; further: nearly all actives have a fitted effect of over 75% in size
# Conditions: G9a H3K9 monomethylation, AlphaScreen, 2 h; activity, negative = inhibition: at 59 µM (top of the series) unless noted
# Method in brief: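 Enzyme 20 nM + cpd, 15 min RT; add b-H3K9 pep 500 nM / SAM 20 uM; 2 h RT; anti-H3K9me1 Ab 0.5 ug/mL + SA donor / anti-rabbit acceptor beads 20 ug/mL each, 10 min; AlphaScreen read.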
# On the % scale 0 is the no-effect control and ±100 the full control effect; potency means the concentration at half of the fitted maximal effect; tags describe the fitted curve by direction and shape.
Compound,Potency,"activity, negative = inhibition"
O=C(NCC(O)c1ccc([N+](=O)[O-])cc1)Nc1ccccc1 (stereo not drawn),"inconclusive: 1 µM [inhibitor, full curve]",–
CC(C)c1ccc(/C=C/C(=O)Nc2nn[nH]n2)cc1,"inconclusive: 25.1 µM [inhibitor, single point]",–
Cn1c(=NC(=O)CSCC(=O)N2CCOCC2)sc2ccccc21,"inconclusive: 79.4 µM [inhibitor, single point]",–
O=C(N/N=C/c1ccc(-c2ccccc2[N+](=O)[O-])o1)[C@H]1C[C@@H]1c1ccccc1,active: 8.91 µM,–
CCC1CCCCN1C(=S)NC(=O)c1cc(S(=O)(=O)N2CCOCC2)ccc1C (stereo not drawn),active: 44.7 µM,–
Nc1nc(CN2CCCCCC2)nc(Nc2ccccc2)n1,"inconclusive: 20 µM [inhibitor, partial curve, poor fit]",–
CCOC(=O)c1sc(NC(=O)c2nc3nc(C)cc(C(F)F)n3n2)c(C(=O)OC(C)C)c1C,–,inactive: -27.7%
COc1ccc2c(CC#N)c[nH]c2c1,–,inactive: -4.91% [at 12.7 µM]
COc1ccc(C(=O)NNC(=O)CSc2nnc(C(C)C)n2C)cc1,"inconclusive: 89.1 µM [inhibitor, single point]",–
COc1cccc(OC)c1C(=O)NNS(=O)(=O)c1ccc2ccccc2c1,–,inactive: -6.29% [at 0.501 µM]
COc1ccccc1C(=O)NCC(=O)OCC(=O)c1cccc2ccccc12,–,inactive: -5.27% [at 102 µM]
CC(OC(=O)c1cc2sccc2n1C)C(=O)NC(C)(C)C (stereo not drawn),"inconclusive: 89.1 µM [inhibitor, partial curve, poor fit]",–
Cc1ccsc1C=C1C(=O)c2ccccc2C1=O,active: 28.2 µM,–
COc1ccccc1NC(=O)Cc1nnc(SCC(=O)NC2=NCCS2)n1C,"inconclusive: 10 µM [inhibitor, partial curve, poor fit]",–
CC(=O)n1c2ccccc2c2nc3ccccc3nc21,–,inactive: 32.9% [at 0.501 µM]
O=C(N/N=C/c1ccc(Br)s1)c1ccccn1,"inconclusive: 39.8 µM [inhibitor, partial curve, poor fit]",–
CCOC(=O)c1ccc(N2C(=O)c3n[nH]c(-c4ccco4)c3C2c2cccc([N+](=O)[O-])c2)cc1 (stereo not drawn),"inconclusive: 15.8 µM [inhibitor, single point]",–
COc1ccc(CC(=O)Oc2ccccc2Cl)cc1S(=O)(=O)N1CCOCC1,"inconclusive: 79.4 µM [inhibitor, single point]",–
COc1cccc(NC(=O)CCSc2nnc3scc(-c4ccccc4)n23)c1,"inconclusive: 89.1 µM [inhibitor, single point]",–
CC(C)Oc1ccc(C(CC(=O)O)NC(=O)C2CCCCC2)cc1 (stereo not drawn),–,inconclusive: -77.1% [inhibitor] [at 12.7 µM]
COC(=O)/C=C1\N/C(=N\c2nc(C)cc(C)n2)N(c2ccc(C)cc2)C1=O,"inconclusive: 39.8 µM [inhibitor, single point]",–
COc1cccc(CNC(=O)CCC2CCCN(C(=O)c3cc(C4CC4)[nH]n3)C2)c1 (stereo not drawn),"inconclusive: 79.4 µM [inhibitor, single point]",–
CCS/C(N)=N/N=C/c1cc(C)ccc1O,–,inactive: 38.6% [at 102 µM]

Compound,Potency,"activity, negative = inhibition"
Cc1nn(C(=O)CCC(=O)NCc2cccc(F)c2)c2ccccc12,"inconclusive: 89.1 µM [inhibitor, single point]",–
COc1ccc(C2(N3CCN(c4cc(C)ccc4C)CC3)C(=O)c3ccccc3C2=O)cc1,"inconclusive: 10 µM [inhibitor, partial curve]",–
CCOC(=O)CN(C(=O)CSc1nnc(CNc2ccc(C)cc2C)o1)c1ccccc1,–,inactive: -7.95%
Cc1c(Cl)cccc1-n1c(-c2cccnc2)n[nH]c1=S,–,inactive: 16.3% [at 12.7 µM]
Cc1ccc(C(=O)NC2CC(C)(C)NC(C)(C)C2)cc1C,"inconclusive: 11.2 µM [inhibitor, partial curve, poor fit]",–
COc1ccccc1N1CC(C(=O)Nc2ccc(N3CCOCC3)cc2)CC1=O (stereo not drawn),–,inactive: -6.41% [at 12.7 µM]
CCCCOC(=O)CCc1c(C)[nH]c(=S)[nH]c1=O,–,inactive: 35% [at 0.501 µM]
Cc1ccc(C(c2ccc(C)o2)c2cccc([N+](=O)[O-])c2O)o1,active: 39.8 µM,–
N#Cc1c(N)c(C(=O)c2ccc(Br)cc2)n2c1CCC2,"inconclusive: 44.7 µM [inhibitor, partial curve, poor fit]",–
Cc1ccc(-c2c[nH]c(=S)n2-c2ccccc2F)cc1,active: 2.82 µM,–
CN(C(=O)CSc1nnc(N)s1)C1CCCCC1,"inconclusive: 79.4 µM [inhibitor, single point]",–
CSc1ccccc1OCc1cc(C(=O)NCCC2=CCCCC2)no1,–,inactive: 71.4% [at 102 µM]
O=c1oc2ccccc2c(N2CCCCC2)c1[N+](=O)[O-],"inconclusive: 89.1 µM [inhibitor, single point]",–
CC(C)(Oc1ccc(Cl)cc1)C(=O)N1CCC(C(N)=O)CC1,"inconclusive: 70.8 µM [inhibitor, partial curve, poor fit]",–
O=C1N/C(=C/c2cccs2)C(=O)N1Cc1ccccc1F,–,inactive: 16.1% [at 102 µM]
COc1ccc(N2Cc3ccccc3C2)cc1Cl,"inconclusive: 22.4 µM [inhibitor, single point]",–
COc1ccc(-n2nc3c(c2NC(=O)c2ccc(Br)o2)CS(=O)(=O)C3)cc1,"inconclusive: 79.4 µM [inhibitor, single point]",–
Cc1cc(C(=O)COC(=O)c2ccncc2)c(C)n1CCc1ccc(F)cc1,"inconclusive: 79.4 µM [inhibitor, partial curve]",–
CN(c1ccccc1)S(=O)(=O)c1ccc(Cl)c(C(=O)Nc2ccc(-c3nc4ccccc4[nH]3)cc2)c1,–,inactive: 9.48%
O=C(O)c1ccccc1Nc1cccc(OCc2ccc3ccccc3n2)c1,active: 39.8 µM and active: 17.8 µM and active: 11.2 µM,–
O=C(CCCNS(=O)(=O)c1ccc(F)cc1)Nc1ccc(F)cc1,"inconclusive: 25.1 µM [inhibitor, single point]",–
C#CCOCCOCCOCCNc1nc(N2CCN(C(=O)[C@H](CCC(=O)O)n3cc(C(N)Cc4ccc(O)cc4)nn3)CC2)nc(N2CCN(C(=O)[C@H](CCC(=O)O)n3cc(C(N)CC(C)C)nn3)CC2)n1 (stereo partly drawn),"inconclusive: 3.55 µM [inhibitor, single point]",–
Cc1ccc(S(=O)(=O)CC(c2ccccc2)N2CCCCC2)cc1 (stereo not drawn),active: 50.1 µM,–

Compound,Potency,"activity, negative = inhibition"
COCCCN1C(=O)C(=O)/C(=C(/O)c2ccc(S(=O)(=O)N3CCOCC3)cc2)C1c1ccc(C)cc1 (stereo not drawn),"inconclusive: 56.2 µM [inhibitor, single point]",–
COc1ccc(Cc2nnc(SC(C)C(=O)Nc3ccc(F)cc3Cl)o2)cc1 (stereo not drawn),–,inactive: -3.87% [at 102 µM]
COc1ccccc1NC(=O)CN1C(=O)C(C)(C)c2ccccc21,–,inactive: 16.5%
CC1=C/C(=C(/c2ccc(O)c(C)c2)c2ccccc2S(=O)(=O)O)C=CC1=O,–,inactive: -15.2% [at 12.7 µM]
Cc1ccc(-c2nnc(Nc3ccc(F)cc3)c3ccccc23)cc1S(=O)(=O)NC(C)C,–,inactive: 5.43%
CCOc1ccccc1OCCC(=O)OCC(=O)Nc1c(C)nn(-c2ccccc2)c1C,active: 56.2 µM,–
O=C(CCc1ccccc1)NC(NC(=S)Nc1ccc(Br)cc1)C(Cl)(Cl)Cl (stereo not drawn),"inconclusive: 3.16 µM [inhibitor, partial curve, poor fit]",–
O=C(OC1CCOC1=O)c1cccc(S(=O)(=O)N2CCc3ccccc3C2)c1 (stereo not drawn),"inconclusive: 35.5 µM [inhibitor, single point]",–
Cc1cccc(NC(=O)/C(=C\c2ccc([N+](=O)[O-])o2)NC(=O)c2ccc(Cl)cc2)c1,"inconclusive: 7.94 µM [inhibitor, full curve, poor fit]",–
Nc1cc(N)nc(SCc2cc([N+](=O)[O-])cc3c2OCOC3)n1,active: 70.8 µM,–
O=C(Nc1nnc(C2=COCCO2)o1)c1ccc(S(=O)(=O)N2CCCC2)cc1,"inconclusive: 1.41 µM [inhibitor, full curve, poor fit]",–
Cc1cc(C)cc(OCC(=O)Nc2nonc2NC(=O)COc2cc(C)cc(C)c2)c1,–,inconclusive: -109% [inhibitor]
CCOC(=O)c1n[nH]c2ccccc12,–,inactive: 13.4%
CCCC(c1nnnn1Cc1ccc(F)cc1)N1CCN(C)CC1 (stereo not drawn),"inconclusive: 56.2 µM [inhibitor, partial curve]",–
Cc1ccccc1CSc1nc2c([nH]c3ccccc32)c(=O)n1-c1ccccc1,–,inactive: 10.8%
CC1=C(C(=O)OCC2CCCO2)C(c2coc3ccccc3c2=O)C2=C(CCCC2=O)N1 (stereo not drawn),"inconclusive: 50.1 µM [inhibitor, partial curve, poor fit]",–
CCOc1ccc(NS(=O)(=O)c2ccc(C(=O)N3CCN(c4ncccn4)CC3)cc2)cc1,"inconclusive: 89.1 µM [inhibitor, partial curve, poor fit]",–
O=C(N/N=C/c1cc(Cl)cc(Cl)c1O)c1ccncc1,–,inactive: -4.49% [at 102 µM]
Cc1ccc(S(=O)(=O)NCC(=O)OCN2C(=O)c3ccccc3C2=O)cc1,"inconclusive: 7.08 µM [inhibitor, full curve, poor fit]",–
N#Cc1nc(-c2ccco2)oc1N1CCc2ccccc2C1,"inconclusive: 2.24 µM [inhibitor, partial curve, poor fit]",–
Cc1cc(NC(=O)C23CC4CC(CC(C4)C2)C3)n[nH]1,–,inactive: 12.6% [at 102 µM]
COc1ccc2cc1Oc1ccc(cc1)C[C@H]1c3c(cc4c(c3Oc3cc5c(cc3OC)CCN(C)[C@@H]5C2)OCO4)CCN1C,inactive and active: 11.2 µM,–

# Reference: PubChem BioAssay AID504332 (National Center for Advancing Translational Sciences (NCATS), 2011)
